# Source: publication doi:10.1101/2019.12.31.876946 (bioRxiv, 2019)
# B1: recombinant human tau isoform 1N3R (natural protein)
# chain: not shown
# Biological target: the molecule itself
# Experiment: thioflavin T fluorescence aggregation assay
protein,measurement,value
B1,t1/2 of aggregation (ThT fluorescence),4.3 h
